Experimental data as given in EP0545103A1, “Insecticidal, acaricidal and molluscicidal 1-(substituted) thioalkylpyrroles” (priority 1991, dated 1993).
At least one read-out could not be matched to a standard name with certainty.

How the values were obtained:
Type in all cases: in vivo
[1] = tested on: Empoasca abrupta, adult, western potato leafhopper; assay: Western potato leafhopper contact test, dipped limabean leaf
Experimental: (§1) Test solutions are prepared by dissolving the test compound in a 35% acetone in water mixture to give a concentration of 10,000 ppm. Subsequent dilutions are made with water as needed.
Empoasca abrupta, adult, western potato leafhopper
A Sieva limabean leaf about 5 cm long is dipped in the test solution for 3 seconds with agitation and placed in a hood to dry. The treated leaf is placed in a 100 x 10 mm petri dish containing a moist filter paper and about 10 adult leafhoppers are added. After 2 days, mortality counts are made.
(§2) All of the above tests are rated according to the rating scale shown below.

[2] = tested on: Heliothis virescens, 3rd instar tobacco budworm; assay: Tobacco budworm 3rd instar test, dipped cotton cotyledons; conditions: mortality rating after 3 days
Experimental: as §1
Heliothis virescens, 3rd instar tobacco budworm
Cotton cotyledons are dipped in the test solution and allowed to dry in a hood. When dry, each is cut into quarters and ten sections are placed individually in 30 mL plastic medicine cups containing a 5-7mm long piece of damp dental wick. One 3rd instar caterpillar is added to each cup and the cup is sealed with MYLAR® film. Treatments are maintained for 3 days before a mortality count and observation of reduction in feeding damage are made.
as §2

[3] = tested on: Tetranychus urticae (OP-resistant strain), 2-spotted spider mite; assay: 2-spotted spider mite test, dipped infested limabean plants; conditions: for OP-RESISTANT MITES Adult: mortality rating after 2 days; for OP-RESISTANT MITES Nymph / OP-RESISTANT MITES Egg: rating after 5 days
Experimental: as §1
Tetranychus urticae (OP-resistant strain), 2-spotted spider mite
Sieva limabean plants with primary leaves expanded to 7-8 cm are selected and cut back to one plant per pot. A small piece is cut from an infested leaf taken from the main colony and placed on each leaf of the test plants. This is done about 2 hours before treatment to allow the mites to move over to the test plant and to lay eggs. The size of the cut, infested leaf is varied to obtain about 100 mites per leaf. At the time of test treatment, the piece of leaf used to transfer the mites is removed and discarded. The newly mite-infested plants are dipped in the test solution for 3 seconds with agitation and set in the hood to dry. After 2 days one leaf is removed and mortality counts are made. After 5 days, another leaf is removed and observations are made of mortality of the eggs and/or newly emerged nymphs.
as §2

[4] = tested on: Spodoptera eridania, 3rd instar larvae, southern armyworm; assay: Southern armyworm 3rd instar test, dipped limabean leaf; conditions: for ARMYWORM Day 3: rating at 3 days; for ARMYWORM Day 5: rating at 5 days
Experimental: as §1
Spodoptera eridania, 3rd instar larvae, southern armyworm
A Sieva limabean leaf expanded to 7-8 cm in length is dipped in the test solution with agitation for 3 seconds and allowed to dry in a hood. The leaf is then placed in a 100 x 10 mm petri dish containing a damp filterpaper on the bottom and ten 3rd instar caterpillars. At 3 and 5 days, observations are made of mortality, reduced feeding, or any interference with normal molting.
as §2

[5] = 10 ppm, contact, rating scale 0-9
[6] = 100 ppm, contact, rating scale 0-9
[7] = 10 ppm, mortality rating after 2 days
[8] = 100 ppm, mortality rating after 2 days

N#Cc1c(Br)c(C(F)(F)F)n(CSc2ncc[nH]2)c1-c1ccc(Cl)cc1 [Example 1]
LEAFHOPPER Contact [1, 5]: 7 (76-85% kill) | LEAFHOPPER Contact [1, 6]: 9 (100% kill) | TOBACCO BUDWORM 3rd Instar ([2]; 10 ppm): 4 (46-55% kill) | TOBACCO BUDWORM 3rd Instar ([2]; 100 ppm): 9 (100% kill) | TOBACCO BUDWORM 3rd Instar ([2]; 1000 ppm): 9 (100% kill)

CN=C(NC)SCn1c(-c2ccc(Cl)cc2)c(C#N)c(Cl)c1C(F)(F)F [Example 2]
LEAFHOPPER Contact [1, 7]: 8 (86-99% kill) | LEAFHOPPER Contact [1, 8]: 9 (100% kill) | OP-RESISTANT MITES Adult ([3]; 10 ppm): 8 (86-99% kill) | OP-RESISTANT MITES Nymph ([3]; 10 ppm): 7 (76-85% kill) | OP-RESISTANT MITES Adult ([3]; 100 ppm): 9 (100% kill) | OP-RESISTANT MITES Adult ([3]; 300 ppm): 9 (100% kill) | OP-RESISTANT MITES Nymph ([3]; 300 ppm): 9 (100% kill)

N#Cc1c(Cl)c(C(F)(F)F)n(CSC(=N)N)c1-c1ccc(Cl)cc1 [Example 3]
OP-RESISTANT MITES Adult ([3]; 10 ppm): 8 (86-99% kill) | OP-RESISTANT MITES Egg ([3]; 10 ppm): 1 (10-25% kill) | OP-RESISTANT MITES Adult ([3]; 100 ppm): 9 (100% kill) | OP-RESISTANT MITES Egg ([3]; 100 ppm): 9 (100% kill) | OP-RESISTANT MITES Adult ([3]; 300 ppm): 4 (46-55% kill) | OP-RESISTANT MITES Egg ([3]; 300 ppm): 4 (46-55% kill) | TOBACCO BUDWORM 3rd Instar ([2]; 10 ppm): 8 (86-99% kill) | TOBACCO BUDWORM 3rd Instar ([2]; 100 ppm): 9 (100% kill) | TOBACCO BUDWORM 3rd Instar ([2]; 1000 ppm): 9 (100% kill) | ARMYWORM Day 3 ([4]; 10 ppm): 8 (86-99% kill) | ARMYWORM Day 3 ([4]; 100 ppm): 9 (100% kill) | ARMYWORM Day 3 ([4]; 1000 ppm): 9 (100% kill)

N#Cc1c(Cl)c(C(F)(F)F)n(CSC2=NCCN2)c1-c1ccc(Cl)cc1 [Example 4]
OP-RESISTANT MITES Adult ([3]; 100 ppm): 6 (66-75% kill) | OP-RESISTANT MITES Adult ([3]; 300 ppm): 9 (100% kill)

N#Cc1c(Br)c(C(F)(F)F)n(CSC2=NCCN2)c1-c1ccc(Cl)cc1 [Example 7]
LEAFHOPPER Contact [1, 7]: 5 (56-65% kill) | LEAFHOPPER Contact [1, 8]: 9 (100% kill) | TOBACCO BUDWORM 3rd Instar ([2]; 10 ppm): 5 (56-65% kill) | TOBACCO BUDWORM 3rd Instar ([2]; 100 ppm): 9 (100% kill) | TOBACCO BUDWORM 3rd Instar ([2]; 1000 ppm): 9 (100% kill)

N#Cc1c(Br)c(C(F)(F)F)n(CSC2=NCCCN2)c1-c1ccc(Cl)cc1 [Example 8]
OP-RESISTANT MITES Egg ([3]; 10 ppm): 4 (46-55% kill) | OP-RESISTANT MITES Egg ([3]; 100 ppm): 8 (86-99% kill) | TOBACCO BUDWORM 3rd Instar ([2]; 10 ppm): 3 (36-45% kill) | TOBACCO BUDWORM 3rd Instar ([2]; 100 ppm): 9 (100% kill) | TOBACCO BUDWORM 3rd Instar ([2]; 1000 ppm): 9 (100% kill) | ARMYWORM Day 5 ([4]; 10 ppm): 6 (66-75% kill) | ARMYWORM Day 5 ([4]; 100 ppm): 9 (100% kill) | ARMYWORM Day 5 ([4]; 1000 ppm): 9 (100% kill)

CC1(C)CN=C(SCn2c(-c3ccc(Cl)cc3)c(C#N)c(Br)c2C(F)(F)F)NC1 [Example 10]
TOBACCO BUDWORM 3rd Instar ([2]; 100 ppm): 8 (86-99% kill) | TOBACCO BUDWORM 3rd Instar ([2]; 1000 ppm): 9 (100% kill)

N#Cc1c(Br)c(C(F)(F)F)n(CSC2=NCCCCN2)c1-c1ccc(Cl)cc1 [Example 11]
LEAFHOPPER Contact [1, 5]: 8 (86-99% kill) | LEAFHOPPER Contact [1, 6]: 9 (100% kill) | TOBACCO BUDWORM 3rd Instar ([2]; 10 ppm): 6 (66-75% kill) | TOBACCO BUDWORM 3rd Instar ([2]; 100 ppm): 9 (100% kill) | TOBACCO BUDWORM 3rd Instar ([2]; 1000 ppm): 9 (100% kill)

N#Cc1c(Br)c(Br)n(CSC2=NCCCN2)c1Br [Example 13]
ARMYWORM Day 5 ([4]; 100 ppm): 3 (36-45% kill) | ARMYWORM Day 5 ([4]; 1000 ppm): 9 (100% kill)

CN=C(NC)SCn1c(Cl)c(Cl)c(C#N)c1-c1ccc(Cl)c(Cl)c1 [Example 15]
TOBACCO BUDWORM 3rd Instar ([2]; 100 ppm): 6 (66-75% kill) | TOBACCO BUDWORM 3rd Instar ([2]; 1000 ppm): 9 (100% kill)

FC(F)(F)c1c(Br)c(-c2ccc(Cl)c(Cl)c2)n(CSC2=NCCCN2)c1C(F)(F)F [Example 17]
TOBACCO BUDWORM 3rd Instar ([2]; 10 ppm): 8 (86-99% kill) | TOBACCO BUDWORM 3rd Instar ([2]; 100 ppm): 8 (86-99% kill) | TOBACCO BUDWORM 3rd Instar ([2]; 1000 ppm): 9 (100% kill)

N=C(N)SCn1c(-c2ccc(Cl)c(Cl)c2)c(Br)c(C(F)(F)F)c1C(F)(F)F [Example 18]
LEAFHOPPER Contact [1, 5]: 4 (46-55% kill) | LEAFHOPPER Contact [1, 6]: 9 (100% kill)
